Source: the supplement of paper PMC10338343
± gives the standard deviation. This is a selection; strong and weak results do not stand in their true shares.

Tested on: MIWI (PIWIL1) piRISC loaded with piRNA #1 (30 nt)
Assay: pre-steady-state target cleavage rate (min^-1); MIWI and MILI are mouse PIWI proteins and EfPiwi is from a freshwater sponge; tags in brackets are library labels; higher = faster piRNA-guided slicing of the target
Settings: guide: piRNA #1 5'p-UGAGGUAGUAGGUUGUAUAGUAUCCAGAGG; auxiliary factor: 500 nM mouse GTSF1
Summary of the method: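 Cleave-'n-Seq: a transcribed, DNA-blocked target RNA library (0.1 nM) was mixed with 1 nM active affinity-purified piRISC carrying one synthetic guide, with or without 500 nM GTSF1 partner protein, in HEPES–potassium acetate buffer at 33 °C for 0–8 or 0–960 min. Uncleaved targets were sequenced and normalised to depth and to weakly complementary targets. Three trials were pooled, and k3 was capped at 0.0001 min^-1. The pre-steady-state cleavage rate came from a burst-and-steady-state fit.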

| Sequence | pre-steady-state target cleavage rate |
| --- | --- |
| CCUCUGGAUAGUAUACAACCUUCUACCUCA | 0.553 ± 0.038 |
| CCUCAGGAUACUAUACAACCUACUACCUGA | 0.144 ± 0.034 |
| GGAGUGGAUUCUAUACUACCUACUACCUCA | 1.07 ± 0.087 |
| GGAGAGGAUACUAUCACAACCUACUACCUCA | 1.09 ± 0.077 |
| GCUCUCGAUACUAUACAAGCUACUACCUCA | 1.29 ± 0.062 |
| GGUCUGGAAACUAUACAACCUACUACGUCA | 0.506 ± 0.059 |
| GGAGACCUAUGAUAUGUACCUAUCUACCUCA | < 0.0001 |
| GGACUGGAUACUAUACAACCUACUACCUCCA | 2.19 ± 0.17 |
| GGAGAGCAUACUAUACAACCUACUACCUGA | 0.765 ± 0.063 |
| GGAGUGGAUACAUAUACAACCUACUACCUCA | 1.31 ± 0.081 |
| CCUCUGGAUACUAUACCAACCUACUACCUCA | 0.4 ± 0.073 |
| GGAGAGGAUACUAUUCAUCCUACUACCUCA | 1.12 ± 0.057 |
| GGAGACCUAUGAUAUCAUCCUACAACCUCA | < 0.0001 |
| GGAGACCUUACUAUACAACCUGCUACCUCA | 0.579 ± 0.052 |
| GGAGACCUAACUAUACAACCUACGACCUCA | 0.486 ± 0.051 |
| GGAGACGAUACUAUACAACCUACGACCUCA | 0.821 ± 0.063 |
| GGACUGGAUACAUAUACAACCUACUACCUCA | 1.45 ± 0.12 |
| GGAGACCUUACUAAACAACCUACUACGUCA | 0.45 ± 0.06 |
| GGAGACCAUACUAUACUACCUACUACCUCA | 0.923 ± 0.071 |
| GGAGACCUUACUAUUCAACCAACUACCUCA | 0.0233 ± 0.0045 |
| GGAGACCUAACUAUACAACCUACUACCACA | 0.95 ± 0.12 |
| GGAGACCAUACUAUACAACCUACAUACCUCA | 1.31 ± 0.11 |

| Sequence | pre-steady-state target cleavage rate |
| --- | --- |
| CCUGUGGAUACUAUACAUCCUACUACCUCA | 1.84 ± 0.11 |
| GGUCUGGAUACUAUACAACCUACUACCUGA | 0.699 ± 0.12 |
| GGAGACGAUACUAUACAACCUAUUACCUCA | 1.6 ± 0.12 |
| GGAGACCUAUGAAUACAACUCUACUACCUCA | < 0.0001 |
| GGAGACCUUACUAUCAACCUACUACCUCA | 0.284 ± 0.03 |
| GCUCUGGAUACUAUACUACCUACUACGUCA | 1.03 ± 0.061 |
| GGAGAGGAUACUAUUCAACCUACUACCUGA | 0.293 ± 0.03 |
| CCUGUGGAUACUUUACAACCUACUACCUCA | 1.82 ± 0.14 |
| GGUCUGGAUACUAUACAUCGUACUACCUCA | 0.461 ± 0.037 |
| GGAGACCAUAGUAUACAACCUACUUCCUCA | 0.153 ± 0.028 |
| GGAGAGGAUAACUAUACAACCUACUACCUCA | 0.887 ± 0.054 |
| GGAGACGAUACUAUACAACCUACAUCCUCA | 0.342 ± 0.029 |
| GGAGACGUUACUAUAGAACCUACUACCUCA | 0.83 ± 0.059 |
| GGAGUGGAUACUAUACAUCCUACAACCUCA | 0.674 ± 0.061 |
| GGAGACCUAACUAAACAACCUACUACCUGA | 0.0122 ± 0.0077 |
| CCUCUGGAAUACUAUACAACCUACUACCUCA | 2.19 ± 0.13 |
| GGAGACCUUACUAUACAAGCUACAACCUCA | 0.542 ± 0.045 |
| GCUCUGGAUUCUAUACAACCUUCUACCUCA | 0.516 ± 0.027 |
| GGAGAGGAUACUAUACAACCUACUUCCUCA | 0.217 ± 0.051 |
| GGAGACCUAUCUAUACAACCUACUACCUCU [g2:g20:cont:t1U] | 1.05 ± 0.087 |
| CCUCUGGAUACUAUACAACCUAUCUACCUCA | 0.348 ± 0.028 |
| GGAGUGGAUAGUAUACAACCUACUAGCUCA | 0.0218 ± 0.0063 |

| Sequence | pre-steady-state target cleavage rate |
| --- | --- |
| GGAGACCAUACUUUACAACCUACUACCUCA | 1.3 ± 0.087 |
| GGAGACCUAUGUAUACAACCUACUACGUGA | 0.0375 ± 0.0082 |
| CCUCUGGAUACUUAUCAACCUACUACCUCA | 1.11 ± 0.11 |
| GGAGACGAUACUAUACAAGGAACUACCUCA | 0.00367 ± 0.0036 |
| CCUCUGGAUACUAUAGAACCAACUACCUCA | 0.0448 ± 0.0073 |
| GGAGACCUAUGUAUACAACCUACUUGCUCA | 0.0161 ± 0.0031 |
| GGACUGGAUACUAUACAAGCUACUACCUCA | 1.12 ± 0.06 |
| GGUCUGGAUACUAUACAACGAACUACCUCA | 0.0146 ± 0.0024 |
| GGAGUGGAAACAAUACAACCUACUACCUCA | 0.696 ± 0.072 |
| GGAGAGGAUACUAAACAACCUACUUCCUCA | 0.187 ± 0.03 |
| GGAGACCUAUGAUAUGUUCCUACUACCAUCA | < 0.0001 |
| CCUCUGGAUACUAUACAACCUAGUAGCUCA | 0.172 ± 0.058 |
| CCUCUGGAUACUAUACAACUACUACCUCA | 0.673 ± 0.042 |
| GGAGACGAUACUUUACUACCUACUACCUCA | 0.861 ± 0.078 |
| CGUCUGGAAACUAUACAACCUACUACCUCA | 1.72 ± 0.083 |
| GGAGACCUAUCUAUUCAACCUACUACCUGA | 0.112 ± 0.028 |
| GGAGACCUAACUAUUCAACCUACUUCCUCA | 0.0693 ± 0.027 |
| CGUCUGGAUACAAUACAACCUACUACCUCA | 1.74 ± 0.09 |
| CCUCUGGAUACUAUACAACCUACAUGCUCA | 0.739 ± 0.085 |
| GGAGACGUUACUAUACAACCUACUACCUGA | 0.573 ± 0.07 |
| GGAGAGGAAUGUAUACAACCUACUACCUCA | 0.197 ± 0.017 |
| GGAGUGGAUUGAAUACAACCUACUACCUCA | 0.202 ± 0.027 |
